Results on nine variants are retold here after the supplement of paper PMC12217912.

The labels stand for the following.
B1: TEV protease; numbered along this chain (parent)
chain: MGESLFKGPRDYNPISSSICHLTNESDGHTTSLYGIGFGPFIITNKHLFRRNNGTLVVQSLHGVFKVKDTTTLQQHLVDGRDMIIIRMPKDFPPFPQKLKFREPQREERICLVTTNFQTKSMSSMVSDTSCTFPSGDGIFWKHWIQTKDGQCGSPLVSTRDGFIVGIHSASNFTNTNNYFTSVPKNFMELLTNQEAQQWVSGWRLNADSVLWGGHKVFMVKPEEPFQPVKEATQL

The list shows a part of the results. The full chains were built here from the parent and the listed change. Inactive controls read about 0.05.
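Note: Bxb1 expression induced with 0.2% (w/v) L-rhamnose at OD600 near 0.5, cultures sampled hourly, flipped fraction per protease–substrate barcode pair counted by paired-end Illumina sequencing.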

The variants in the assay derive from B1. Description: raw area under fraction-flipped curve 0-4 h after induction (AUC4h, not background-subtracted), DNA-recorder readout of cleavage of the substrate (dimensionless); higher = more cleavage of the substrate by the protease variant. The conditions noted are these: temperature: 34 °C; time window: 0-4 h after rhamnose induction. As to the method:
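In vivo DNA recorder in E. coli TOP10(DE3) ΔrhaA at 34 °C. Each TEVp single-site mutant (parent TEVp 0) is paired with a single-site variant of the 7-mer TEVs (canonical ENLYFQ|S). The substrate sits between flexible linkers in a Bxb1-sfGFP-TEVs-SsrA fusion, so cleavage stabilises Bxb1 and speeds flipping of a recombination array, read by NGS. The value is the raw area under the fraction-flipped curve over 0-4 h after rhamnose induction (AUC4h), with ≥20 reads per time point. It is not background-subtracted; inactive controls average about 0.047.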
MGESLFKGPRDYNPISSSICHLTNESDGHTTSLYGIGFGPFIITNKHLFRRNNGTLVVQSLHGVFKVKDTTTLQQHLVDGRDMIIIRMPKDFPPFPQKLKFREPQRTERICLVTTNFQTKSMSSMVSDTSCTFPSGDGIFWKHWIQTKDGQCGSPLVSTRDGFIVGIHSASNFTNTNNYFTSVPKNFMELLTNQEAQQWVSGWRLNADSVLWGGHKVFMVKPEEPFQPVKEATQL [E107T]: the “area with substrate DNLYFQS” value amounted to 0.0839, the “area with substrate LNLYFQS” value turned out to be 0.0607, the “area with substrate SNLYFQS” value was determined as 0.0851 and the “area with substrate TNLYFQS” value was determined as 0.061. The “area with substrate WNLYFQS” value stood at 0.0665.
Regarding MGESLFKGPRDYNPISSSICHLTNESDGHTTSLYGIGFGPFIITNKHLFRRNNGTLVVQSLHGVFKVKDTTTLQQHLVDGRDMIIIRMPKDFPPFPQKLKFREPQREERICLVTHNFQTKSMSSMVSDTSCTFPSGDGIFWKHWIQTKDGQCGSPLVSTRDGFIVGIHSASNFTNTNNYFTSVPKNFMELLTNQEAQQWVSGWRLNADSVLWGGHKVFMVKPEEPFQPVKEATQL [T115H], the “area with substrate DNLYFQS” value stood at 0.0489, the “area with substrate GNLYFQS” value stood at 0.062, the “area with substrate HNLYFQS” value came out at 0.0703 and the “area with substrate KNLYFQS” value stood at 0.0611. The “area with substrate LNLYFQS” value amounted to 0.0686, the “area with substrate MNLYFQS” value is 0.0712, the “area with substrate PNLYFQS” value amounted to 0.0757 and the “area with substrate SNLYFQS” value is 0.0614. The “area with substrate TNLYFQS” value is 0.054, the “area with substrate WNLYFQS” value is 0.0536 and the “area with substrate YNLYFQS” value was 0.0057.
As to MGESLFKGPRDYNPISSSICHLTNESDGHTTSLYGIGFGPFIITNKHLFRRNNGTLVVQSLHGVFKVKDTTTLQQHLVDGRDMIIIRMPKDFPPFPQKLKFREPQREERICLVTTNFQTKNMSSMVSDTSCTFPSGDGIFWKHWIQTKDGQCGSPLVSTRDGFIVGIHSASNFTNTNNYFTSVPKNFMELLTNQEAQQWVSGWRLNADSVLWGGHKVFMVKPEEPFQPVKEATQL [S121N], the “area with substrate DNLYFQS” value came out at 0.0734, the “area with substrate FNLYFQS” value was determined as 0.0598, the “area with substrate GNLYFQS” value was 0.063 and the “area with substrate HNLYFQS” value was 0.0629. Besides, the “area with substrate LNLYFQS” value turned out to be 0.0645, the “area with substrate NNLYFQS” value worked out at 0.0678, the “area with substrate TNLYFQS” value amounted to 0.0674 and the “area with substrate WNLYFQS” value is 0.063.
Regarding MGESLFKGPRDYNPISSSICHLTNESDGHTTSLYGIGFGPFIITNKHLFRRNNGTLVVQSLHGVFKVKDTTTLQQHLVDGRDMIIIRMPKDFPPFPQKLKFREPQREKRICLVTTNFQTKSMSSMVSDTSCTFPSGDGIFWKHWIQTKDGQCGSPLVSTRDGFIVGIHSASNFTNTNNYFTSVPKNFMELLTNQEAQQWVSGWRLNADSVLWGGHKVFMVKPEEPFQPVKEATQL [E108K], the “area with substrate DNLYFQS” value amounted to 0.0489, the “area with substrate HNLYFQS” value stood at 0.0542, the “area with substrate KNLYFQS” value was 0.0554 and the “area with substrate LNLYFQS” value came to 0.051. Moreover, the “area with substrate NNLYFQS” value came to 0.0522, the “area with substrate PNLYFQS” value is 0.0566, the “area with substrate SNLYFQS” value was 0.0571 and the “area with substrate TNLYFQS” value was found to be 0.0511. The “area with substrate WNLYFQS” value was found to be 0.0586.
For the variant MGESLFKGPRDYNPISSSICHLTNESDGHTTSLYGIGFGPFIITNKHLFRRNNGTLVVQSLHGVFKVKDTTTLQQHLVDGRDMIIIRMPKDFPPFPQKLKFREPQRERRICLVTTNFQTKSMSSMVSDTSCTFPSGDGIFWKHWIQTKDGQCGSPLVSTRDGFIVGIHSASNFTNTNNYFTSVPKNFMELLTNQEAQQWVSGWRLNADSVLWGGHKVFMVKPEEPFQPVKEATQL [E108R], the “area with substrate DNLYFQS” value was determined as 0.0417, the “area with substrate HNLYFQS” value worked out at 0.0592, the “area with substrate INLYFQS” value turned out to be 0.0318 and the “area with substrate KNLYFQS” value stood at 0.0531. The “area with substrate PNLYFQS” value was 0.0587, the “area with substrate TNLYFQS” value is 0.0479, the “area with substrate WNLYFQS” value is 0.0452 and the “area with substrate YNLYFQS” value worked out at 0.041.
Regarding MGESLFKGPRDYNPISSSICHLTNESDGHTTSLYGIGFGPFIITNKHLFRRNNGTLVVQSLHGVFKVKDTTTLQQHLVDGRDMIIIRMPKDFPPFPQKLKFREPQREERICLVTTNFQTKSMSSMVSDRSCTFPSGDGIFWKHWIQTKDGQCGSPLVSTRDGFIVGIHSASNFTNTNNYFTSVPKNFMELLTNQEAQQWVSGWRLNADSVLWGGHKVFMVKPEEPFQPVKEATQL [T129R], the “area with substrate DNLYFQS” value was determined as 0.0907, the “area with substrate FNLYFQS” value stood at 0.0645, the “area with substrate LNLYFQS” value worked out at 0.0633 and the “area with substrate MNLYFQS” value came to 0.0811. The “area with substrate PNLYFQS” value is 0.0788, the “area with substrate TNLYFQS” value is 0.066 and the “area with substrate WNLYFQS” value stood at 0.0645.
For the variant MGESLFKGPRDYNPISSSICHLTNESDGHTTSLYGIGFGPFIITNKHLFRRNNGTLVVQSLHGVFKVKDTTTLQQHLVDGRDMIIIRMPKDFPPFPQKLKFREPQREERICLVTTNFQTKSMSSMVSDASCTFPSGDGIFWKHWIQTKDGQCGSPLVSTRDGFIVGIHSASNFTNTNNYFTSVPKNFMELLTNQEAQQWVSGWRLNADSVLWGGHKVFMVKPEEPFQPVKEATQL [T129A], the “area with substrate DNLYFQS” value is 0.0728, the “area with substrate HNLYFQS” value was determined as 0.0759, the “area with substrate INLYFQS” value was 0.0476 and the “area with substrate KNLYFQS” value turned out to be 0.0859. For the same variant, the “area with substrate LNLYFQS” value was 0.054, the “area with substrate PNLYFQS” value turned out to be 0.0689, the “area with substrate QNLYFQS” value is 0.0717 and the “area with substrate RNLYFQS” value is 0.0809. The “area with substrate TNLYFQS” value was found to be 0.0668, the “area with substrate VNLYFQS” value worked out at 0.066 and the “area with substrate WNLYFQS” value amounted to 0.0588.
On to MGESLFKGPRDYNPISSSICHLTNESDGHTTSLYGIGFGPFIITNKHLFRRNNGTLVVQSLHGVFKVKDTTTLQQHLVDGRDMIIIRMPKDFPPFPQKLKFREPQREEAICLVTTNFQTKSMSSMVSDTSCTFPSGDGIFWKHWIQTKDGQCGSPLVSTRDGFIVGIHSASNFTNTNNYFTSVPKNFMELLTNQEAQQWVSGWRLNADSVLWGGHKVFMVKPEEPFQPVKEATQL [R109A], for which the “area with substrate DNLYFQS” value came to 0.0819, the “area with substrate HNLYFQS” value is 0.0664, the “area with substrate INLYFQS” value amounted to 0.0617 and the “area with substrate KNLYFQS” value came to 0.0693. Further, the “area with substrate MNLYFQS” value was 0.0799, the “area with substrate NNLYFQS” value was determined as 0.0642, the “area with substrate PNLYFQS” value amounted to 0.0348 and the “area with substrate SNLYFQS” value was determined as 0.0727. The “area with substrate VNLYFQS” value stood at 0.0697, the “area with substrate WNLYFQS” value was 0.0898 and the “area with substrate YNLYFQS” value was determined as 0.0627.
MGESLFKGPRDYNPISSSICHLTNESDGHTTSLYGIGFGPFIITNKHLFRRNNGTLVVQSLHGVFKVKDTTTLQQHLVDGRDMIIIRMPKDFPPFPQKLKFREPQREENICLVTTNFQTKSMSSMVSDTSCTFPSGDGIFWKHWIQTKDGQCGSPLVSTRDGFIVGIHSASNFTNTNNYFTSVPKNFMELLTNQEAQQWVSGWRLNADSVLWGGHKVFMVKPEEPFQPVKEATQL [R109N]: the “area with substrate DNLYFQS” value is 0.063, the “area with substrate FNLYFQS” value came to 0.062, the “area with substrate GNLYFQS” value turned out to be 0.0765 and the “area with substrate HNLYFQS” value is 0.071. Also, the “area with substrate LNLYFQS” value was 0.0547, the “area with substrate RNLYFQS” value stood at 0.0533, the “area with substrate SNLYFQS” value amounted to 0.0677 and the “area with substrate VNLYFQS” value worked out at 0.0636.
